The campaign covered roughly 310,000 compounds. About 14,000 (4.5%) showed an effect of 50% or more. The effect is printed as a negative number. This is one part of the list.
target: human ether-à-go-go-related gene (hERG) potassium channel (human, UniProt Q12809); experiment: primary screen, population patch clamp on CHO cells stably expressing hERG
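Note: peak tail current of the secondary pulse compared with the same well before compound.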

Chain of human ether-à-go-go-related gene (hERG) potassium channel (Q12809 whole entry, looked up): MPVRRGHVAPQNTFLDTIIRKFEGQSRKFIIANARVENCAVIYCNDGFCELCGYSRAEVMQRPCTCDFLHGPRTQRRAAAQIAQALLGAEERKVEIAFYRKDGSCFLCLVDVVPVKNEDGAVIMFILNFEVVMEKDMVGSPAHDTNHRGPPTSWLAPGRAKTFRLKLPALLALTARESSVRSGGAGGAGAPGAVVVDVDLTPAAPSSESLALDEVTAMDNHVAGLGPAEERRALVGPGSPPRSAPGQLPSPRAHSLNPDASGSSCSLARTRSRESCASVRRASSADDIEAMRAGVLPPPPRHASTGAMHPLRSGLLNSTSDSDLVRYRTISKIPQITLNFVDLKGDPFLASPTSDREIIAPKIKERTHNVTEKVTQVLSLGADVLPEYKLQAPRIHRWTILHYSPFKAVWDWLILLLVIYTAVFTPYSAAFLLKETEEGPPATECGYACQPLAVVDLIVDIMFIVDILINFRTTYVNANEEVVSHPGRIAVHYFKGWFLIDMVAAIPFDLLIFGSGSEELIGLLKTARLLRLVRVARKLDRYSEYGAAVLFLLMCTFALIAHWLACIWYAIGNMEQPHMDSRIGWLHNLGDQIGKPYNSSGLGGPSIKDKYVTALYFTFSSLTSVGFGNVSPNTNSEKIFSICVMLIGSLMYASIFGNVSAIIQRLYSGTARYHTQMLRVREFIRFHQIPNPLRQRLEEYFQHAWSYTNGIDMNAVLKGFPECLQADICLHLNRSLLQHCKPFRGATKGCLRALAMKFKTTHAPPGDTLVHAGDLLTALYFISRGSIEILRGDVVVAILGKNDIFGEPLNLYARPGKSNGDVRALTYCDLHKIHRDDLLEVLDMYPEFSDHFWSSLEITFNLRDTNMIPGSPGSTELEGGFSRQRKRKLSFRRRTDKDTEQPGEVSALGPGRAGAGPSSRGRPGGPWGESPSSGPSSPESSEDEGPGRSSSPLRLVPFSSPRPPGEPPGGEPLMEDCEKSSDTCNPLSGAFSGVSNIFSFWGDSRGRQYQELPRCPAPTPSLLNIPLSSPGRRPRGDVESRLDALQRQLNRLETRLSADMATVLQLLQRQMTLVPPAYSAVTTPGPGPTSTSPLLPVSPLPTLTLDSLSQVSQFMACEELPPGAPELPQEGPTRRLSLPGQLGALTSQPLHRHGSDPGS

Compound	hERG current change (%, negative = inhibition) at 10uM [%]
CC1CCC(NS(=O)(=O)c2ccc(Cl)nc2)CC1 (stereo not drawn)	-12
CCCCN1C(=O)C(=O)N(CC(=O)Nc2cc(Cl)ccc2OC)C1=O	-13.9
CCCOc1cccc(C(=O)NCCNC(=O)c2ccc(C)nc2)c1	-0.872
COc1ccc(Oc2ccc(/C=C/C(=O)c3ccc(O)cc3)cc2[N+](=O)[O-])cc1	-0.331
CC(=O)CCc1c(C)nc2ccc(C)cc2c1Cl	-13.8
CCn1cc([N+](=O)[O-])c(=O)c2cc(F)c(N3CCOCC3)cc21	24.6
Cc1ccc(S(=O)(=O)N(CC(=O)NN=C2CCN(C)CC2)c2ccc(C(C)C)cc2)cc1	-21.3
CC(=O)Oc1ccccc1C(=O)Nc1ccccc1C(=O)N1CCCC1	25.6
CCc1cc(=O)oc2cc(C)cc(OCC(=O)NC(Cc3ccc(Cl)cc3)C(=O)O)c12 (stereo not drawn)	-9.21
CCCOc1ccccc1C1NC(=O)NC(C)=C1C(=O)OCCOC (stereo not drawn)	6.85
CCC(C)Nc1nc(OC(C(F)(F)F)C(F)(F)F)nc(OC(C(F)(F)F)C(F)(F)F)n1 (stereo not drawn)	4.95
CN(c1ccccc1)S(=O)(=O)c1ccc(Cl)c(C(=O)OCC(=O)NCc2ccco2)c1	-25
Cc1ccsc1C(=O)C1CCCN(Cc2c(C)nn(C(C)C)c2C)C1 (stereo not drawn)	-3.49
COc1ccc(-c2nc3c4ccccc4ccn3c2CN2CCOCC2)cc1OC.Cl	-34.5
COc1ccc(S(=O)(=O)N2CCCN(S(=O)(=O)c3ccc(OC)c(C)c3)CC2)cc1C	-7.54
CC(CO)(CO)NCc1ccc(-c2ccccc2)cc1.Cl	-6.2
O=C(Cn1cnc2ccccc2c1=O)Nc1cccc(S(=O)(=O)N2CCCCC2)c1	-17.5
COc1ccc(C(=O)c2cn[nH]c2-c2cc(C)ccc2O)cc1	10.7
O=C(CN1CCCCC1)N1c2ccccc2CCc2ccccc21	4.5

Compound	hERG current change (%, negative = inhibition) at 10uM [%]
COc1ccc2c(c1)c(C(=O)O)c(C)n2C(C)C	13.3
CCCCNC(=O)CN1C(=O)NC2NC(=O)NC21 (stereo not drawn)	15.2
CCCn1c(N)c(N2CCCCC2)c(=O)n(CC(=O)Nc2ccc(OC(F)(F)F)cc2)c1=O	-5.16
CCOc1ccc(C2NC(=O)Cc3cc(OC)c(OC)cc32)cc1 (stereo not drawn)	16.8
OC(CN1CCCCC1)Cn1c2ccccc2c2cc(Br)ccc21 (stereo not drawn)	-33.1
Cc1ccc(C)c(CSc2ncccc2C(=O)O)c1	6.29
Cc1nn(C(=O)c2ccco2)c(C)c1Sc1ccc([N+](=O)[O-])cc1	20.8
Cc1ccccc1S(=O)(=O)NC1OC(=O)C(Cl)=C1Cl (stereo not drawn)	13.3
COCCNC(=O)c1ccc(Cl)c(Cl)c1	1.76
O=C(c1ccc(C(F)(F)F)cc1)c1c[nH]c(C(=O)NCCCn2ccnc2)c1	-70.4
CCOc1cc(/C=N/N=C(N)N)ccc1OCc1ccc(Cl)cc1	-19.9
Cc1cccc(C(=O)NCC(=O)OCC(=O)N2CCCCC2)c1	11.4
CCOC(=O)c1sc(NS(=O)(=O)c2ccc(NC(C)=O)cc2)nc1C	-6.46
CC1CN(c2nc(-c3ccccc3)nc3ccccc23)CC(C)O1 (stereo not drawn)	9.25
CC(=O)Nc1ccc(S(=O)(=O)N2CCC(N3CCCC3)CC2)cc1	13.2
CCN1CCN(C(=O)C(=O)c2cn(CC(=O)N3CCCCCC3)c3ccccc23)CC1	11.8
Cn1c2ccccc2c(=O)c2c(=O)n(-c3ccccc3)c(C3CCCCC3)nc21	13
Cc1cc(C)cc(NC(=S)NCCc2ccc(S(N)(=O)=O)cc2)c1	-15.5
CCC(C)(C)C1CCC2(CC1)NC(=O)N(CC(=O)N(C)Cc1ccc3c(c1)OCCO3)C2=O (stereo not drawn)	-0.519

Compound	hERG current change (%, negative = inhibition) at 10uM [%]
CC1CN(C(=O)c2cn3ccccc3n2)CC(C)O1 (stereo not drawn)	6.26
CCOc1ccccc1NC(=O)CC1NCCNC1=O (stereo not drawn)	-8.89
CC(=O)Nc1ccc(C(=O)C(Cc2ccccc2)N(C)C)cc1.Cl (stereo not drawn)	19
Cc1cc(NC(=O)c2ccccc2F)n(-c2nc3ccccc3[nH]2)n1	9.75
CCCNC(=O)C1CNc2ccccc2O1 (stereo not drawn)	8.85
O=C(Nc1ccc(F)cc1)c1ccc2nsnc2c1	-10
O=C(Oc1ccc(F)cc1)N1CCOCC1	2.9
CCCn1nc(NS(=O)(=O)c2cccc3nonc23)c2cc3cc(C)ccc3nc21	-4.63
Cc1nn(Cc2ccccc2)c(C)c1NS(=O)(=O)c1ccccc1	1.4
Cc1nn(Cc2ccc([N+](=O)[O-])cc2)c(=O)n1-c1c(F)cccc1F	-23.5
Cc1ccc(CNC(=O)CCC(=O)Nc2nnc(C(C)C)s2)cc1	21
CCCc1cc2c(OC(=O)CC)c(-c3ccc(C(=O)OCC)o3)c(=O)oc2cc1OC	-2.16
COc1cc(-c2nnc(SCC(=O)O)n2-c2ccccc2)cc(OC)c1OC	32.1
N#C/C(=C\c1ccc(O)c(O)c1)C(=O)Nc1cccc2ncccc12	14.6
Cc1ccc(S(=O)(=O)Nc2ccc3c(c2)CCC3)cc1	3.99
O=C(Cn1cnc2c(nnn2Cc2ccccc2)c1=O)NCc1ccco1	-0.421
CCOC(=O)Cc1csc(N/N=C\c2ccc(N(C)C)cc2)n1	8.64
c1ccc(N2CCN(c3c4c(nc5ncnn35)CCC4)CC2)cc1	-42.5
CCOC(=O)C1=NN(c2ccccc2C)C2=NC(C)=C(C(=O)OC)C(c3cccc(OC)c3)N12 (stereo not drawn)	5.01

Source: PMC4336329 (PLoS ONE, 2015)
